± gives the standard deviation of the averaged measurements. The list shows a part of the results.

The assay deals with PfAP2-I AP2 domain 3 (GST-tagged). Kind of assay: gcPBM binding intensity (ln(normalized median fluorescence intensity)); higher = stronger DNA binding. Put shortly: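 Probes on an Agilent 4 × 180k array were primer-extended, double-stranded and 36 bp long, taken from intergenic genomic regions, with negative controls added. GST-tagged P. falciparum DNA-binding domains from E. coli, about 25 μg on average, were applied to the array for 1 h in 1× PBS containing 1% milk, 0.2 mg/ml BSA, 0.5% salmon testes DNA and 0.03% Triton X-100. Binding intensity, obtained after Alexa488 anti-GST antibody detection and a 488 nm scan, is the highest Masliner-normalised natural-log median intensity across replicate spots of either probe orientation.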
On to “TATTTATTATGATACTCATATTATTCTATGATTAAA [GTGCAC_negctrl_site486]”, for which the “gcPBM binding intensity (ln)” value was 7.49 ± 0.41.

Consider CGTAAATTTTTCTAAGTGCATGTTAATTTTTCAATT, for which the “gcPBM binding intensity (ln)” value is 9.01 ± 0.67. Turning to “ATTTTCAAATTAAAATGTACAAATGAAAGAAAGGGA [XGTACX_site7048]”, the “gcPBM binding intensity (ln)” value is 8.03 ± 0.69. On to “TGAAATAAAATTTGTACACACATATATATATATATA [CACACA_site586]”, for which the “gcPBM binding intensity (ln)” value was determined as 9.36 ± 0.38. The value for “GTGAATCCTAAGTGTACACATCTTACAGATATATAT [CACACA_site4836]” was 8.28 ± 0.58; that for “TTCCTTCATTGGAAAAGTACACAATATTGTCGTTTA [XGTACX_site8057]” was 7.71 ± 0.37; that for “ATATAGGTATAATACACACACTAATATGTAACTGTA [CACACA_site7011]” was 7.89 ± 0.44. In the case of “GCACAAATCATCAAATGTACAGAAAATGCTGTCAAT [XGTACX_site5037]”, the “gcPBM binding intensity (ln)” value amounted to 7.67 ± 0.66. The value for “TTAAAAATAAAACAAAGTACTCAAGTTATTGTCTTT [XGTACX_site1584]” was 7.51 ± 0.72.

“TATGATATGTATGGAAGTACGAAGAGGGATGATCAG [XGTACX_site1677]”: the “gcPBM binding intensity (ln)” value is 8.15 ± 0.73.

On to “CACGCATACAGACACACACACACACCCATATATATA [CACACA_site636]”, for which the “gcPBM binding intensity (ln)” value was found to be 8.31 ± 0.66. Turning to “AACTATATATATAATTCACACATGTTTTAAAATTTT [CACACA_site4971]”, the “gcPBM binding intensity (ln)” value was found to be 7.97 ± 0.67. The value for “CTATGCATTTATAGTGCATGTAAAATATAAGATAAT [TGCATGCA_site71]” was 9.86 ± 0.085. Regarding “TACTATGCCCCATATAAACACACAAATAAAAAGAAT [CACACA_site8857]”, the “gcPBM binding intensity (ln)” value turned out to be 8.48 ± 0.38. The value for “TATAAACCTACATACACACATACAATAAGTAAAATG [CACACA_site1921]” was 7.88 ± 0.71.

With “ATGTATCATAAGAACTGTGTGGTTACAGACACGAAC [GTGCAC_negctrl_site416]”, the “gcPBM binding intensity (ln)” value is 8.27 ± 0.85. As for “TTTCCTTTTTTAATATGTACACATATTATTATATCT [XGTACX_site3079]”, the figure is 7.92 ± 0.31. Take “ATATATTCTTATTGCTGTACACATATTTTCTAAAAA [XGTACX_site4851]”: the “gcPBM binding intensity (ln)” value amounted to 8.72 ± 0.54. The value for “AACGCAGTTTAATATACACACCAAAAAAAAAAAAAG [CACACA_site5643]” was 7.89 ± 0.55; that for “TTTCTTAAATATATGCGTACTCAAAATTGTTCTACA [XGTACX_site7995]” was 7.73 ± 0.33. As for “AAAAATATAATATAATGTACACATAAACAAAAAAAA [XGTACX_site3658]”, the figure is 7.92 ± 0.57; as for “TAACCACAAAAATAAAATCAAAAAAAAAAAAAAAAA [CACACA_negctrl_site1727]”, 7.99 ± 0.58.

In the case of “ATATATATATATTTCGCACACATAATCTTATTAAAT [CACACA_site2579]”, the “gcPBM binding intensity (ln)” value is 9.22 ± 0.31. Consider “TAAAATAAAACAAACACACACACACCGACACAAAAA [CACACA_site5993]”, for which the “gcPBM binding intensity (ln)” value turned out to be 8.25 ± 0.14.

In the case of “AACAGACATACATACACACATACATACAGACATACA [CACACA_site1942]”, the “gcPBM binding intensity (ln)” value was 7.98 ± 0.41. For “ACATTCTATACATACACACCCACACCCAAAAAAAAA [CACACA_site863]”, the “gcPBM binding intensity (ln)” value worked out at 9.29 ± 0.6. In the case of “TATATATCAATATACACACACACATATTTATTTATA [CACACA_site6858]”, the “gcPBM binding intensity (ln)” value came out at 7.82 ± 0.23.

As to “AAATATAATATACAAAGTACTTTTTCATCTTATATA [XGTACX_site8771]”, the “gcPBM binding intensity (ln)” value came out at 7.71 ± 0.49.

In the case of “AGACAATAATATAATCGTACAATAAATAAAATAAAA [XGTACX_site5231]”, the “gcPBM binding intensity (ln)” value came to 7.94 ± 0.28.

As for “TGAACAAAAAAAAATTGTACTTTTTTTTTAATATTT [XGTACX_site7172]”, the “gcPBM binding intensity (ln)” value was 7.57 ± 0.32. With “TTTCTTCGAAATAGAACACTTGTGCAAAATAAGCAA [XGTACX_negctrl_site361]”, the “gcPBM binding intensity (ln)” value turned out to be 9.9 ± 0.23.

Consider “ATTTTTTTATAAAATTTTTATATAATTTATTATAAA [GTGCAC_negctrl_site96]”, for which the “gcPBM binding intensity (ln)” value was found to be 7.39 ± 0.59. The value for “AAAAAAAACAATCTCATACACACTAGGGATTAATTA [CACACA_site1776]” was 7.33 ± 0.52; that for “TAAAGAGAAATATGTACATGCGAAAATGCCTTAAAT [TGCATGCA_site1050]” was 8.18 ± 0.81. The value for “AACATAAAACGTAATATATTACAAATATAAACAATC [CACACA_negctrl_site1675]” was 7.92 ± 0.81; that for “TTACCATTTGAAAATTCACACACTTTATTTTGTTAT [CACACA_site3799]” was 7.75 ± 0.77; that for “ATATATATATATATATGTACATATTTTATAACTGTA [XGTACX_site5395]” was 9.27 ± 0.48.

On to “ATTTATACATATAAACGTACATACATATATAATATT [XGTACX_site2969]”, for which the “gcPBM binding intensity (ln)” value is 7.88 ± 0.72. Consider “TGGATAAAATAAAAATGTACTTAACATTTATATTTT [XGTACX_site712]”, for which the “gcPBM binding intensity (ln)” value stood at 7.39 ± 0.37.

For the sequence “AACAAAAGTAATTAAAAACAATACAAACATATGTTT [XGTACX_negctrl_site220]”, the “gcPBM binding intensity (ln)” value amounted to 7.38 ± 0.64. “ATCATTCAAAAATGCTGTACTAGGGGAAAACGTGTT [XGTACX_site7168]”: the “gcPBM binding intensity (ln)” value came to 7.83 ± 0.52. The value for “ATATATAGGTTCCCTTTTCTTTTTTTTTTTTTTTTT [CACACA_negctrl_site1159]” was 8.69 ± 0.57. As for “ATGTATGAAAAAATGTGTACATAATTTTTTTTTTTT [XGTACX_site5444]”, the figure is 7.88 ± 0.52. As for “AAATAATATAAACATACACACACACCGATATATATA [CACACA_site8945]”, the figure is 8.4 ± 0.54.

These data come from the supplement of paper PMC11417369.
